The record followed here is publication PMC4336329 (PLoS ONE, 2015).

The whole screen tested about 310,000 compounds, of which about 14,000 (4.5%) showed an effect of 50% or more. Effects have a minus sign here. The list shows a part of the results.
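Also: peak tail current of the secondary pulse compared with the same well before compound.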

For the assay, the target named is human ether-à-go-go-related gene (hERG) potassium channel (human, UniProt Q12809). In words: primary screen, population patch clamp on CHO cells stably expressing hERG.
human ether-à-go-go-related gene (hERG) potassium channel, sequence (Q12809 whole entry, looked up): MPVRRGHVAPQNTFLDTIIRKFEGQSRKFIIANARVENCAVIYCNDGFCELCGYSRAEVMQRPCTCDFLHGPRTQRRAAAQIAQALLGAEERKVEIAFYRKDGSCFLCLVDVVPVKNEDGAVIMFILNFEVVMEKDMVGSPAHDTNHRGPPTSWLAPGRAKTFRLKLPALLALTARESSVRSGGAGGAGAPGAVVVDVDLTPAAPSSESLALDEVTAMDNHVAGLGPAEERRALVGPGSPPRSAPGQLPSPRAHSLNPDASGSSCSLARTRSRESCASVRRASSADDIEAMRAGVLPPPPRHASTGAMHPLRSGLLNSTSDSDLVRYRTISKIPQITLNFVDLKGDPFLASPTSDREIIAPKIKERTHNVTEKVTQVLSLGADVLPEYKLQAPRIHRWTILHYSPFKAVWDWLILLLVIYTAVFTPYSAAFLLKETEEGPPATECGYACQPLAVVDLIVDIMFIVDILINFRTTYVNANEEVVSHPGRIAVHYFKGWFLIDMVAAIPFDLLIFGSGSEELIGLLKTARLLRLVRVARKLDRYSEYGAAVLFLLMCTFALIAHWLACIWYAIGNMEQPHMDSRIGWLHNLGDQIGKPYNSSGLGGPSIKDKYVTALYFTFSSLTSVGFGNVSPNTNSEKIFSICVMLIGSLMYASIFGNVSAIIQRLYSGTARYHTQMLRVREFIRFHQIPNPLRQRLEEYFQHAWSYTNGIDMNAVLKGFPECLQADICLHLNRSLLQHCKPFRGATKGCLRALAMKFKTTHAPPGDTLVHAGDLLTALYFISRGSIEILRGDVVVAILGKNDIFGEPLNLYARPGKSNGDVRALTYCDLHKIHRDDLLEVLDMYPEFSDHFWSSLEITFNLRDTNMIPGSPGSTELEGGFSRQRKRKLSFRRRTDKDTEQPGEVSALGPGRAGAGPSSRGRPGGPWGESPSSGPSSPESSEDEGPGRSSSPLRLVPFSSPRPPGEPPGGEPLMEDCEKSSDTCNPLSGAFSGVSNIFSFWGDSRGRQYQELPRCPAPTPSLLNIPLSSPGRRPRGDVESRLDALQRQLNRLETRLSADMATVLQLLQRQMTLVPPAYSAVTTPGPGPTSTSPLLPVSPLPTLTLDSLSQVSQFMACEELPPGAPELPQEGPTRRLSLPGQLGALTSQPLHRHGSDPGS
`COc1ccc(-c2nnn(Cc3nc(N)nc(N4CCOCC4)n3)n2)cc1OC`: the “hERG current change (%, negative = inhibition) at 10uM” value is reported as -0.202%.
Under `O=C1C(=C2CCCCC2)SC(=S)N1Cc1ccco1` stands -3.86%; under `Cc1cc(N2CCN(C)CC2)nc(-c2ccccc2O)n1`, -41.9%.
The result for `Cc1c(O)ccc(C(=O)CN2C(=O)c3ccccc3C2=O)c1O` reads 19.4%.
Under `CCN(c1ccccc1)S(=O)(=O)c1cccc(C(=O)O)c1` stands 3.87%; under `CC(=O)c1ccc(OC(=O)C2c3ccccc3Oc3ccccc32)cc1`, 1.88%; under `CCCCN=C1SC(C(=O)Nc2sc3c(c2C(=O)OC)CCC3)C(N)=C1C(=O)N1CCOCC1` (centres unmarked), -1.11%.
Consider `COc1cc(/C=C2/C(=O)ON=C2C)cc(Cl)c1O`, for which the “hERG current change (%, negative = inhibition) at 10uM” value is reported as -17.5%.
Under `CCN(CC)C(CNC(=O)CSc1nnnn1-c1ccc(C)c(C)c1)c1ccco1` (centres unmarked) stands -54.5%; under `CCOC(=O)CC1C(=O)NCCN1C(=O)c1c(Cl)cccc1Cl` (centres unmarked), 16.2%.
Under `CCC/C(=N\NC(=O)C1CC1)c1ccc(Br)cc1` stands 11.9%; under `C1CCC(C23CC4CC(CC(C4)C2)C3)NC1` (centres unmarked), 5.21%; under `CCOC(=O)C1CCCN(C2=C(NS(=O)(=O)c3ccc(Br)cc3)C(=O)c3ccccc3C2=O)C1` (centres unmarked), -49.1%.
Under `CN(C(=O)CCN1C(=O)S/C(=C\c2ccccc2)C1=O)C1CCS(=O)(=O)C1` (centres unmarked) stands -0.0298%; under `COc1ccc(NCc2nnc(SCc3ccc(Cl)cc3)n2-c2ccccc2)cc1`, -2.47%.
As for `O=C(CCCC(=O)N(CC(=O)NC1CCCCC1)c1ccc(F)cc1)Nc1ccccn1`, the “hERG current change (%, negative = inhibition) at 10uM” value is 7.12%.
Turning to `O=C1[C@H]2[C@@H](c3ccc(F)cc3)N3C(=O)N(c4ccccc4)C(=O)[C@@]3(Cc3ccc(Cl)cc3)[C@H]2C(=O)N1C1CCCCC1`, the “hERG current change (%, negative = inhibition) at 10uM” value is 8.97%.
Turning to `CC(C)(C)C1=NN(C(=O)c2ccccc2)C(O)(C(C)(C)C)C1` (centres unmarked), the “hERG current change (%, negative = inhibition) at 10uM” value is -32.6%.
As for `CC(=O)NCc1ccc(S(=O)(=O)NC(C)CCc2ccccc2)cc1` (centres unmarked), the “hERG current change (%, negative = inhibition) at 10uM” value was 13.3%.
Under `CC(=O)NC1C(=O)N=C(SCC(=O)Nc2sc3c(c2C#N)CCCCCC3)NC1=O` (centres unmarked) stands 9.21%.
The result for `Cc1cc(C(=O)Nc2c(C)nn(Cc3ccccc3Cl)c2C)no1` reads -3.4%; that for `O=C(CNC1CCCCC1)N1CCc2ccccc2C1`, -8.04%; that for `C=C(C)C(=O)Nc1cccc(C2=NOC3(C2)C[C@@H](C(N)=O)N(C(=O)/C=C/CC)C3)c1` (some centres unmarked), 2.42%.
Under `CC(Oc1ccccc1Cl)C(=O)N(Cc1ccco1)C1CCS(=O)(=O)C1` (centres unmarked) stands -8.93%; under `Cc1c(NC(=O)C23CC4CC(CC(C4)C2)C3)c(=O)n(-c2ccccc2)n1C`, 20.7%; under `CCCCC(=O)Nc1ccc(C(=O)N(CC)c2ccccc2C)cc1`, 15.3%.
For `CCOc1ccc(CCNC(=O)CN2C(=O)NC3(CCCCC3C)C2=O)cc1OCC` (centres unmarked), the “hERG current change (%, negative = inhibition) at 10uM” value is given as 6.68%.
Turning to `Cc1sc2nc(-c3ccncc3)[nH]c(=O)c2c1-c1ccccc1`, the “hERG current change (%, negative = inhibition) at 10uM” value was -2.11%.
The result for `Cc1ccc(NC(=O)C2CCCNC2=O)nc1` (centres unmarked) reads 11.6%; that for `COc1ccc(NC(=S)NNC(=S)Nc2cccc(C(F)(F)F)c2)cc1`, 10%; that for `COc1ccc2c(c1)C(=O)CCC2c1ccccc1` (centres unmarked), -22.6%.
For the compound `COc1ccc(NC(=O)Cn2nnc(C(=O)NCc3ccccc3)c2N)cc1Cl`, the “hERG current change (%, negative = inhibition) at 10uM” value is -4.06%.
Under `CCCc1cc(=O)oc2c3c(c(Cl)cc12)OCN(CCCO)C3` stands 12.6%.
Under `Cc1nnc(-c2cnn(C)c2N)n1CCCN1CCOCC1` stands 29.1%.
The result for `COc1cccc(C(c2c(C)[nH]n(-c3ccccc3)c2=O)c2c(C)[nH]n(-c3ccccc3)c2=O)c1OC` reads -10.1%; that for `COc1ccccc1C(=O)NCc1ccncc1`, 0.175%.
For the compound `CCOC(=O)CN1C(=O)N[C@@H](c2ccc(Br)cc2)C(C(=O)OC)=C1C`, the “hERG current change (%, negative = inhibition) at 10uM” value was -4.26%.
Take `CCCC(=O)NC(=S)Nc1ccc(NC(=O)C(C)C)c(OC)c1`: the “hERG current change (%, negative = inhibition) at 10uM” value was -17.7%.
The result for `COc1ccc(C(C)(C)C)cc1NC(=O)C1CC=CCC1C(=O)O` (centres unmarked) reads 6.32%; that for `CCN(CC)S(=O)(=O)c1ccc(NC(=O)C(C)N(c2ccccc2)S(C)(=O)=O)cc1` (centres unmarked), -2.03%; that for `CCS(=O)(=O)N1CCC(N2CCC(C)CC2)CC1.O=C(O)C(=O)O`, -9.03%.
Turning to `CCCCNc1c2c3c(cccc3n(C)c1=O)C(=O)c1ccccc1-2`, the “hERG current change (%, negative = inhibition) at 10uM” value is -9.34%.
The result for `COC(=O)Nc1[nH]ncc1[N+](=O)[O-]` reads 27.2%; that for `CCOc1ccc(CN2CCC(n3nccc3NC(=O)c3ccccc3OC)CC2)cc1`, -82.8%.
Under `COc1ccccc1C(=O)Nc1c[nH]c(=O)[nH]c1=O` stands 10.6%.
With `NS(=O)(=O)c1ccc(CCNC(=S)NC2CCCC2)cc1`, the “hERG current change (%, negative = inhibition) at 10uM” value stood at 11.2%.
The result for `CCOC(=O)/C(N=Nc1cc(C(=O)O)cc(C(=O)O)c1)=C(\O)CCl` reads -0.207%; that for `COCCCNC(=S)N(CCO)Cc1cc2cc3c(cc2[nH]c1=O)OCCO3`, 17%; that for `COc1cc(C2NC(=O)NC(c3ccccc3)=C2C(C)=O)ccc1OCC(=O)O` (centres unmarked), 1.92%.
The result for `C[C@H](NC(=O)Nc1ccc2c(c1)OCCO2)C(=O)O` reads 24%.
The result for `O=C(NCc1nc(-c2ccc(C(F)(F)F)cc2)no1)Nc1cc(Cl)cc(Cl)c1` reads 7.7%; that for `CCOC(=O)c1c(C)c(-c2ccccc2)n(CC(=O)NCCC(C)C)c1C`, 2.14%.
For `Nn1c(SCC(=O)Nc2ccc(OC(F)F)cc2)nnc(Cc2ccccc2)c1=O`, the “hERG current change (%, negative = inhibition) at 10uM” value is listed as -44.5%.
Under `COc1cccc(/C=N/NC(=O)c2cccc3ccccc23)c1OC` stands 7.78%; under `COc1cc(Cn2c(-c3nonc3N)nc3ccccc32)ccc1C`, 2.95%.
The result for `COc1ccc(CCNC(=O)C(C)OC(=O)c2cccs2)cc1OC` (centres unmarked) reads -15.5%.
